The record followed here is PubChem BioAssay AID1159614 (National Center for Advancing Translational Sciences (NCATS), 2016).

In all, about 45,000 compounds went through this assay and about 65 (0.1%) were called active. Calls follow the shape of the dose curve; as a rule, active = well fitted activation curve with a large enough effect; inconclusive = small, poorly fitted or top-dose-only effect; inactive = no such curve, though single readings can be large or run the other way. The list shows a part of the results.

In the test the target is Galactocerebrosidase (Homo sapiens) (UniProt P54803). Description: A Novel Cell-Based Assay to Identify Small Molecules for B -Galactocerebrosidase. Also: 0% is about no effect; nearly all actives have a fitted effect of over 65% in size. As to conditions: 145M-Twi-hGALC-G270D cells (Twitcher mouse brain line with human GALC G270D), HMU-beta-Gal fluorescence, 48 h; series mostly up to 57.5 µM; activation: at the top concentration. The method in brief: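 Mutant human GALC (G270D), stably expressed in a Twitcher mouse brain cell line lacking endogenous GALC, is measured in live-treated cells via 6-hexadecanoylamino-4-methylumbelliferyl-β-galactoside hydrolysis (0.1 mM final, pH 5.2) with fluorescent detection.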
Chain of UniProt P54803 (P54803 whole entry, looked up): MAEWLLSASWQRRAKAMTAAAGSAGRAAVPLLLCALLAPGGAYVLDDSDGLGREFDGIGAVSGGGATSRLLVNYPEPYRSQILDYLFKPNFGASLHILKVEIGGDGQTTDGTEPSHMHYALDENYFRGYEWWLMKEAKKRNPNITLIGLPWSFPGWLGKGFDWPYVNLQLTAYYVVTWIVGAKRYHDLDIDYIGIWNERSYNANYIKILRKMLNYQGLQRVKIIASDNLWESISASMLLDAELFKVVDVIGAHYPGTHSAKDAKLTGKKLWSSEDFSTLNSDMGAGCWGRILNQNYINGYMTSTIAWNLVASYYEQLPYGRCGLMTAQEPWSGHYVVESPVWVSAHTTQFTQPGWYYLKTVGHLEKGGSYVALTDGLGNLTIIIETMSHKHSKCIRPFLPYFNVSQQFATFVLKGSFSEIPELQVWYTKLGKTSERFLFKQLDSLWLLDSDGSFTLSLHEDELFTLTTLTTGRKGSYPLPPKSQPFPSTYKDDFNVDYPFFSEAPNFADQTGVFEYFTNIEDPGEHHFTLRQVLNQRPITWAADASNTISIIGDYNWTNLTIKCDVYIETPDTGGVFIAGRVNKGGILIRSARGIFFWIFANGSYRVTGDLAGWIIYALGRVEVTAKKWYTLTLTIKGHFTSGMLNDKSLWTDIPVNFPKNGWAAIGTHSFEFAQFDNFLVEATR
For the compound `CCCN1C(=O)C(Cc2nc3ccccc3c(=O)n2CC)c2cc(Br)ccc21` (stereo unspecified), the “activation” value was inactive: -17.9%.
In the case of `CCOc1ccccc1CNC(=O)c1cnc2sc(N3CCCCCC3)nn2c1=O`, the “activation” value is inactive: 2.64%.
Then `CCOc1ccccc1NC(=O)c1c(NC(=O)c2ccccc2)sc2c1CCCC2`, with inactive: -10.2%.
Turning to `CCc1ccc(Oc2c(C(F)(F)F)oc3c(CN4CCN(C)CC4)c(O)ccc3c2=O)cc1`, the “activation” value was inactive: -14.7%.
Then `O=C(Cn1cc(SCc2cccc(Cl)c2)c2ccccc21)N1CCCCCC1`, with inactive: -2.96%.
Take `COc1cccc(C(=O)NCc2nc(-c3ccccc3)no2)c1OC`: the “activation” value was inactive: -5.86%.
Then `O=S(=O)(O)c1ccc(O)cc1`, with inactive: -8.51%.
As to `CCc1ccc(S(=O)(=O)NCCc2csc3nc(-c4ccccc4)nn23)s1`, the “activation” value was inactive: 0.535%.
Regarding `CC(C)(C)c1ccc(-c2nc3cc(NC(=O)c4cccc(Br)c4)ccc3o2)cc1`, the “activation” value is inactive: -6.62%.
With `COc1cccc(CNC(=O)Cn2ncc3c4ccccc4n(Cc4ccccc4)c3c2=O)c1`, the “activation” value was inactive: -9.9%.
The same measure for `COc1ccccc1CN(Cc1ccco1)c1cnc(S(C)(=O)=O)nc1C(=O)Nc1cc(C)ccc1C`: inactive: -10.9%; for `O=C(NCCc1csc2nc(-c3ccc(F)cc3)nn12)c1cccc(C(F)(F)F)c1`: inactive: -1.15%.
Take `COc1ccc(-n2ccn(CC(=O)NCCc3ccccc3)c(=O)c2=O)cc1OC`: the “activation” value was inactive: -15.1%.
As for `Cc1oc(-c2ccccc2)nc1CCC(=O)c1ccc(CC2SC(=O)NC2=O)cc1` (stereo unspecified), the “activation” value is inactive: -13.9%.
Take `COc1ccc(Cn2c(SCc3ccc(C(=O)NC4CCCC4)cc3)nc3cccnc32)cc1`: the “activation” value was inactive: -17.8%.
Regarding `Cc1cccc(NC(=O)CCc2c(C)nc3nc(CNC(=O)c4cccc(F)c4)nn3c2C)c1`, the “activation” value is inactive: -8.78%.
For `COc1ccc(-c2noc(CSc3nnc(-c4ccncc4)n3-c3ccc(C)cc3)n2)cc1OC`, the “activation” value is inactive: -1.91%.
`O=C(Cn1c(=O)n(Cc2ccc3c(c2)OCO3)c(=O)c2oc3ccccc3c21)Nc1ccc(F)cc1`: the “activation” value was inactive: -0.44%.
The same measure for `CCn1cc(CNC(=O)c2cc(-c3ccc(C)c(C)c3)nc3ccccc23)c(C)n1`: inactive: -2.11%.
On to `CC1CCCCN1C(=O)Cn1c(SCC(=O)N(C)c2ccccc2)nc2ccccc21` (stereo unspecified), for which the “activation” value was inactive: -22.2%.
The same measure for `Cc1cccc(C(c2sc3nc(-c4ccco4)nn3c2O)N2CCN(c3ccccc3)CC2)c1` (stereo unspecified): inactive: -10.6%; for `O=C(C1CCCCC1)N1CC(=O)N2CCc3ccccc3C2C1` (stereo unspecified): inactive: -12%; for `CCOc1ccccc1CNS(=O)(=O)c1ccc(-c2coc(C)n2)cc1`: inactive: -40.8%.
The same measure for `O=C(Cn1nc2c(cc1=O)CCCC2)Nc1ccccc1C(F)(F)F`: inactive: 4.26%; for `Cc1ccc(NC(=O)c2ccc(NC(=O)N3CCSc4nc(C)cc(C)c43)cc2)c(Cl)c1`: inactive: -2.39%; for `COC(=O)c1ccccc1NC(=O)c1cc2nc(-c3ccc(OC)cc3)cc(C(F)(F)F)n2n1`: inactive: -2.49%.
Consider `Cc1ccc(NC(=O)c2ccc(=O)n(CC(=O)Nc3cccc(C)c3)n2)cc1`, for which the “activation” value is inactive: -9.76%.
Consider `CCOC(=O)CNS(=O)(=O)c1cc(-c2nnc(Nc3cccc(O)c3)c3ccccc23)ccc1C`, for which the “activation” value is inactive: -8.17%.
Take `Cc1cc(NC(=O)c2cccs2)cc(-c2nc3cc(Cl)ccc3o2)c1O`: the “activation” value is inactive: -19.2%.
For the compound `CCCc1ccc(C2Sc3ccccc3NC3=C2C(=O)c2ccccc23)cc1` (stereo unspecified), the “activation” value was inactive: -34.9%.
Then `Cc1ccc(C)c(NC(=O)c2ccc3nc(CCc4ccccc4)oc3c2)c1`, with inactive: -5.61%; and `O=C(CSc1n[nH]c(-c2ccccc2Cl)n1)N1CCN(c2ccccc2)CC1`, with inactive: 0.746%.
Regarding `CCC(=O)NCc1cc(-c2nn(C)c(=O)c3ccccc23)ccc1OC`, the “activation” value is inactive: -10.7%.
Turning to `CCCCn1c(SCC(=O)NCCCOC)nc2c(sc3ccccc32)c1=O`, the “activation” value is inactive: -16.6%.
With `CCn1c(=O)c2sccc2n2c(CCCC(=O)N3CCN(c4cc(Cl)ccc4C)CC3)nnc12`, the “activation” value is inactive: -3.72%.
In the case of `Cc1cc(C)c(NC(=O)CSc2ccc(-c3sc(-c4ccccc4)nc3C)nn2)c(C)c1`, the “activation” value was inactive: -4.56%.
Turning to `Cc1cc(C)c(NC(=O)CSc2nc3nc(C)cc(C)n3n2)c(C)c1`, the “activation” value is inactive: 5.44%.
As to `CCN(CC)c1cc(C)c2cc(NC(=O)c3ccccc3OC)ccc2n1`, the “activation” value is inactive: -5.8%.
The same measure for `CCCCOc1cccc(C2c3c(oc4ccccc4c3=O)C(=O)N2c2ccccn2)c1` (stereo unspecified): inactive: -8.7%; for `COc1ccccc1N1CCN(c2ncccc2-c2nc(-c3ccc(Cl)cc3)no2)CC1`: inactive: -10.9%; for `CCc1ccc(C(=O)c2cn(CC(=O)Nc3ccc(OC)c(OC)c3)c3ccc(C)cc3c2=O)cc1`: inactive: -5.75%.
In the case of `O=C(CSc1nc(-c2ccc(F)cc2)[nH]c1-c1ccccc1)NCC1CCCO1` (stereo unspecified), the “activation” value is inactive: -14.7%.
The same measure for `COc1ccc(-c2nnc(SCC(=O)NCc3ccc(C)cc3)nc2-c2ccc(OC)c(OC)c2)cc1OC`: inactive: -5.67%.
In the case of `COc1ccc(CCNC(=O)c2ccc3c(c2)N(Cc2ccccc2F)C(=O)c2ccccc2S3(=O)=O)cc1OC`, the “activation” value was inactive: -1.9%.
In the case of `Cc1ccc(CN(Cc2ccco2)C(=O)COc2cc(C)c(Cl)c(C)c2)cc1`, the “activation” value is inactive: -4.31%.
For `CCOC(=O)c1cnc2c(ccc3ccccc32)c1Nc1cccc(OC)c1`, the “activation” value was inactive: -17.5%.
As for `O=C(NCCc1ccccc1)c1cc(S(=O)(=O)N2CCCCC2)c[nH]1`, the “activation” value was inactive: -1.69%.
Then `O=c1c2c(-c3ccccc3)ccnc2[nH]n1-c1ccccc1`, with inactive: -12.3%; and `COCCN1C(=O)c2[nH]nc(-c3ccccc3O)c2C1c1ccc(Cl)c(Cl)c1` (stereo unspecified), with inactive: -5.64%; and `O=C(CCN1N=C(c2ccccc2)CCC1=O)NCCc1ccc(Cl)cc1`, with inactive: -16.1%.
For the compound `Cc1nn(C(=O)c2c(F)cccc2F)c(C)c1S(=O)(=O)N1CCOCC1`, the “activation” value is inactive: -1.67%.
On to `CCCC1=Nc2cc(C(=O)NC(C)c3ccccc3)ccc2Sc2ccc(C)cc21` (stereo unspecified), for which the “activation” value was inactive: -1.25%.
On to `Cc1cc(C(F)F)n2nc(C(=O)Nc3c(C)cccc3C)nc2n1`, for which the “activation” value was inactive: 0.612%.
For `Cc1cccc(N2CCN(C(=O)c3cc4c(=O)oc5ccccc5c4s3)CC2)c1C`, the “activation” value was inactive: 6.22%.
Turning to `CCOc1ccc(N(CC(=O)NCc2ccccc2Cl)S(=O)(=O)c2c(C)[nH]c(=O)[nH]c2=O)cc1`, the “activation” value was inactive: -6.3%.
For the compound `CC(=O)Nc1ccc(NC(=O)CSc2nc3ccccc3nc2N2CCOCC2)cc1`, the “activation” value is inactive: -12.8%.
Consider `Oc1c(C(c2ccccc2Cl)N2CCCC2)sc2nc(-c3ccco3)nn12` (stereo unspecified), for which the “activation” value is inactive: -7.57%.
The same measure for `CCOc1ccc(C(=O)c2cn(Cc3ccccc3OC)c3ccc(F)cc3c2=O)cc1`: inactive: -10.1%; for `COc1ccc(S(=O)(=O)N2CCC(Oc3ccc(-n4cnnn4)cc3)CC2)cc1OC`: inactive: -12.5%; for `COc1ccc(-n2c(CC3C(=O)N(C)c4ccc(C)cc43)nc3ccccc3c2=O)cc1` (stereo unspecified): inactive: -10.3%.
Regarding `CCc1ccc(NC(=O)CN(c2ccc(OC)cc2)S(=O)(=O)c2c(C)[nH]c(=O)[nH]c2=O)cc1`, the “activation” value was inactive: -10.5%.
